Laboratory results published in PubChem BioAssay AID1768 (National Center for Advancing Translational Sciences (NCATS), 2009).
Out of some 270,000 compounds screened, about 620 (0.23%) were called active. The inconclusive results got no clear call from the source; some entries with a clear call stand among them for comparison. The call rests on the fitted dose curve; in most records, active means well fitted inhibition curve with a large enough effect in the polarisation, with a control signal flat (not every such curve was filed as active); inconclusive means small, poorly fitted or top-dose-only effect, or effect the other way, or a change in a side signal; inactive means no such curve, though single readings can be large or run the other way; the % refers to the polarisation. Where the call is inconclusive, the potency comes from a doubtful curve fit. A note “side channel” means that the fit belongs to a control or component signal, not to the main read-out.

molecular target: Menin (Homo sapiens) (UniProt O00255); assay: qHTS Assay for Inhibitors Targeting the Menin-MLL Interaction in MLL Related Leukemias: Competition With Texas Red Labeled MLL-derived Mutant Peptide; conditions: fluorescence polarization; series mostly up to 61.6 µM
Chain of UniProt O00255 (O00255 whole entry, looked up): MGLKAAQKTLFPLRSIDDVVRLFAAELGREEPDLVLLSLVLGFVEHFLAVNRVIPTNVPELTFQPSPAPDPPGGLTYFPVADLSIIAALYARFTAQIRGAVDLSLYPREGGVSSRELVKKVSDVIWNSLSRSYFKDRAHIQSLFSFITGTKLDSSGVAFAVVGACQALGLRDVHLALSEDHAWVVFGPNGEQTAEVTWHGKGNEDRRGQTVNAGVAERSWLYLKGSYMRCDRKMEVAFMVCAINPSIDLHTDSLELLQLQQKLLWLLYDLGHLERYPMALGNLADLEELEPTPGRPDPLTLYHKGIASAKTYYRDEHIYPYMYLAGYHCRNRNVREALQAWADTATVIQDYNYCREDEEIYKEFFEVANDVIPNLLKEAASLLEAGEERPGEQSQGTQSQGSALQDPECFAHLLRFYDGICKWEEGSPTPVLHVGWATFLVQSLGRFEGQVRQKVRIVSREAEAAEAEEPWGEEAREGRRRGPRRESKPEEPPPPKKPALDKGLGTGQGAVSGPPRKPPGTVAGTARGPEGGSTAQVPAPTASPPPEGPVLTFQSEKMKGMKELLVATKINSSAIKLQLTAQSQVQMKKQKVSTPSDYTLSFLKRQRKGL
Potency means the concentration at half of the fitted maximal effect; tags describe the fitted curve by direction and shape or compound fluorescence and quenching.

**Q.** With `COc1cc(CCC(=O)N2CCN(c3ccccc3Cl)CC2)cc(OC)c1OC` as the molecule, how does the Potency read?
**A.** The Potency was inconclusive: 39.8 µM [inhibitor, single point].

**Q.** Which Potency does the source give for `COC(=O)c1cc(NC(=O)c2ccc(-c3ccccc3)cc2)ccc1Cl` here?
**A.** Its Potency is inconclusive: 25.1 µM [quencher, side channel, partial curve].

**Q.** `COc1ccc(OC)c(C(=O)CSc2nc3cccnc3n2C)c1` was tested. Which Potency did it give?
**A.** Its Potency is inconclusive: 8.91 µM [inhibitor, single point].

**Q.** `COC(=O)c1c(C(=O)OC)c(-c2ccccc2)n2c1CCC2` was tested. Which Potency did it give?
**A.** Its Potency is inconclusive: 28.2 µM [inhibitor, single point].

**Q.** With `COCCSc1ccccc1C(=O)Nc1cc(C)on1` as the molecule, how does the Potency read?
**A.** The Potency was “inactive”.

**Q.** Which Potency does the source give for `Nc1ccc(N2CCOCC2)c2nonc12` here?
**A.** Its Potency is inconclusive: 15.8 µM [quencher, side channel, partial curve].

**Q.** With `O=C1/C(=C/c2ccc(N3CCCC3)cc2)NC(=S)N1C1CC1` as the molecule, how does the Potency read?
**A.** The Potency was “inactive”.

**Q.** For `COc1cccc([C@@H]2Oc3ccc(OC)cc3C(=O)[C@H]2OC(=O)Nc2ccc(C)c(Br)c2)c1`, which Potency is on record?
**A.** Its Potency is “inactive”.

**Q.** Which Potency does the source give for `c1ccc(Nc2ccccc2Nc2ccccn2)nc1` here?
**A.** The Potency was inconclusive: 10 µM [inhibitor, partial curve, poor fit].

**Q.** Which Potency does the source give for `COc1ccc(OCCn2c(N)nc3ccccc32)cc1` here?
**A.** Its Potency is “inactive”.

**Q.** How did the Potency turn out when `O=C(N=Nc1c(O)[nH]c2ccc([N+](=O)[O-])cc12)c1cc(-c2ccccc2Cl)nc2ccccc12` was run?
**A.** Its Potency is inconclusive: 7.08 µM [quencher, side channel, partial curve].

**Q.** Which Potency does the source give for `CCCn1c(/N=C/c2ccccc2O)nc2ccccc21` here?
**A.** The Potency was inconclusive: 39.8 µM [inhibitor, single point].

**Q.** With `Cc1cc(Cl)ccc1NC(=O)CN1CCC(C(O)(c2ccccc2)c2ccccc2)CC1` as the molecule, how does the Potency read?
**A.** Its Potency is inconclusive: 2.82 µM [inhibitor, full curve, poor fit].

**Q.** Which Potency does the source give for `COCCNC(=O)NC12CC3CC(CC(C3)C1)C2` here?
**A.** Its Potency is inconclusive: 39.8 µM [fluorescent, side channel, single point].

**Q.** Which Potency does the source give for `COC(=O)[C@@]1(Cc2ccccc2)[C@H]2c3cc(C(=O)N(C)C)n(CCSCCO)c3C[C@H]2CN1C(=O)c1ccccc1` here?
**A.** The Potency was inconclusive: 10 µM [fluorescent, side channel, partial curve].

**Q.** How did the Potency turn out when `CCOc1ccccc1N1CCN(C/C=C/c2ccc(N(C)C)cc2)CC1` was run?
**A.** Its Potency is “inactive”.

**Q.** How did the Potency turn out when `CCOC(=O)c1ccc(C(=O)OCC)c(NC(=S)Nc2ccc([N+](=O)[O-])cc2OC)c1` was run?
**A.** Its Potency is inconclusive: 14.1 µM [quencher, side channel, partial curve].

**Q.** Which Potency does the source give for `Cc1ccc(OCCn2c(=O)n(C)c3ccccc32)cc1` here?
**A.** Its Potency is inconclusive: 12.6 µM [fluorescent, side channel, partial curve, poor fit].

**Q.** With `CCOC(=O)C1=C(C)Nc2ncnn2C1c1ccccc1F` (stereo not given) as the molecule, how does the Potency read?
**A.** Its Potency is inconclusive: 35.5 µM [inhibitor, partial curve, poor fit].

**Q.** `O=C1C=C(c2ccccc2)C[C@H](c2cccs2)[C@H]1n1nnc([N+](=O)[O-])n1` was tested. Which Potency did it give?
**A.** Its Potency is inconclusive: 28.2 µM [quencher, side channel, partial curve].

**Q.** For `O=C(CCn1nnc2ccccc21)N1CCN(c2ccccc2)CC1`, which Potency is on record?
**A.** Its Potency is “inactive”.

**Q.** For `CCOc1cc(/C=N/NC(=O)c2cc(C)[nH]n2)ccc1OC(=O)c1ccc([N+](=O)[O-])cc1`, which Potency is on record?
**A.** Its Potency is inconclusive: 25.1 µM [quencher, side channel, partial curve].

**Q.** Which Potency does the source give for `Cc1onc(-c2ccccc2)c1C(=O)Nc1sc2c(c1C(N)=O)CCC2` here?
**A.** The Potency was inconclusive: 15.8 µM [quencher, side channel, single point].

**Q.** `COc1ccccc1NS(=O)(=O)c1ccc(N/N=C/C=C/c2ccccc2[N+](=O)[O-])c([N+](=O)[O-])c1` was tested. Which Potency did it give?
**A.** Its Potency is inconclusive: 8.91 µM [quencher, side channel, partial curve].

**Q.** How did the Potency turn out when `CC1=C(/C=C/C(C)=C\C=C\C(C)=C\C=C\C=C(C)\C=C\C=C(C)\C=C\C2=C(C)C[C@@H](O)CC2(C)C)C(C)(C)C[C@H](O)C1` was run?
**A.** Its Potency is “inactive”.

**Q.** For `CN(C)CCCNc1cc(-c2ccccc2)nc2cc(-c3cccc(F)c3)nn12`, which Potency is on record?
**A.** Its Potency is “inactive”.

**Q.** How did the Potency turn out when `O=C(CCc1nc2ccccc2s1)OCc1ccccc1F` was run?
**A.** Its Potency is inconclusive: 20 µM [fluorescent, side channel, single point].

**Q.** Which Potency does the source give for `COCCNc1nc(Cl)c(C#N)s1` here?
**A.** The Potency was “inactive”.

**Q.** `CCNc1ncc2nc(-c3cccs3)c(=O)n(CCC#N)c2n1` was tested. Which Potency did it give?
**A.** Its Potency is “inactive”.

**Q.** For `CC(=C\c1ccccc1)/C=C1/SC(=O)N(CCCC(=O)Nc2ccc(C(=O)O)cc2)C1=O`, which Potency is on record?
**A.** The Potency was inconclusive: 35.5 µM [quencher, side channel, partial curve].

**Q.** With `O=C(NNC(=S)Nc1ccc(F)c(Cl)c1)c1ccccc1Br` as the molecule, how does the Potency read?
**A.** The Potency was inconclusive: 31.6 µM [quencher, side channel, single point].

**Q.** `COCCn1c(=O)c(-c2ccc(OC)cc2)nc2cnc(Nc3cccc(OC)c3)nc21` was tested. Which Potency did it give?
**A.** Its Potency is inconclusive: 3.55 µM [quencher, side channel, full curve].

**Q.** For `Cc1noc(C)c1C(=O)N1CCC2(CC1)CCN(C(c1ccccc1)c1ccccc1)CC2`, which Potency is on record?
**A.** The Potency was inconclusive: 12.6 µM [inhibitor, partial curve].

**Q.** With `COc1ccc(NC(=O)c2oc3ccccc3c2NC(=O)c2ccco2)cc1` as the molecule, how does the Potency read?
**A.** Its Potency is “inactive”.

**Q.** Which Potency does the source give for `CCOC(=O)C(=Cc1ccc(F)cc1)C(=O)OCC` here?
**A.** Its Potency is inconclusive: 14.1 µM [inhibitor, partial curve].

**Q.** For `O=[N+]([O-])c1cccc2c(S(=O)(=O)N3CCCCC3)cccc12`, which Potency is on record?
**A.** Its Potency is inconclusive: 1.41 µM [inhibitor, full curve, poor fit].

**Q.** With `N#Cc1c(N)sc2c1CCN(C(=O)OCc1ccccc1)C2` as the molecule, how does the Potency read?
**A.** The Potency was inconclusive: 28.2 µM [quencher, side channel, single point].

**Q.** How did the Potency turn out when `Cc1ccc(N2C(=O)Nc3ccccc3S2(=O)=O)cc1Cl` was run?
**A.** The Potency was inconclusive: 39.8 µM [quencher, side channel, single point].

**Q.** For `COc1ccc(NC2=NCCC(=O)N2Cc2cccs2)cc1`, which Potency is on record?
**A.** The Potency was “inactive”.

**Q.** For `Cc1ccc(-n2[nH]c(C)c(/C=N/Nc3ccc([N+](=O)[O-])cc3[N+](=O)[O-])c2=O)cc1C`, which Potency is on record?
**A.** The Potency was inconclusive: 28.2 µM [quencher, side channel, partial curve].
